Laboratory results taken from the supplement of paper PMC8674133.

B1: C2020 (protein)
chain 1: EVQLVESGGGLVQPGGSLRLSCAASGLTVSSNYMSWVRQAPGKGLEWVSVIYSGGSTYYADSVKGRFTISRDNSKNTLYLQMNSLRAEDTAVYYCARETYAFDIWGQGTMVTVSS
chain 2: DIQLTQSPSFLSASVGDRVTITCRASQGISSYLAWYQQKPGKAPKLLIYAASTLQSGVPSRFSGSGSGTEFTLTISSLQPEDFATYYCQQLNSYSYTFGQGTKLEIK
B2: C1297 (protein)
chain 1: EVQLVQSGAEVKKPGESLRISCKGSGYSFTNYWISWVCQMPGKGLEWMGRIDPSDSYTNYSPSFQGHVTISVDKSISTAYLQWSSLKASDTAIYYCARHDRSPGIQYYDILTDNWRDRDWFDPWGQGTLVTVSS
chain 2: SYELTQPPSVSVAPGKTARITCGGNNIGSKSVHWYQQKPGQAPVLVVYDDSDRPSGIPERFSGSNSGNTATLTISRVEAGDEADYYCQVWDSSSDHRGVFGGGTKLTVL
B3: C1299 (protein)
chain 1: QVQLVQSGAEVKKPGSSVKVSCKASGGTFSRYAISWVRQAPGQGLEWMGGIITLLGTANYAQKFQGRVTITADESTSTAYMELSSLRSEDTAVYYCARDVVPAAIAVGGYFDYWGQGTLVTVSS
chain 2: SYELTQPPSVSVAPGQTARIPCGGNNIGSKSVHWYQQKPGQAPVLVVYDDSDRPSGIPERFSGSNSGNTATLTISRVEAGDEADYYCQVWGGISDHHVVFGGGTKLTVL
B4: C1301 (protein)
chain 1: QVQLVESGGGVVQPGRSLRLSCAASGFSFSNYGMHWVRQAPGMGLEWVALIWYDGSNKYYGDSVRGRFAISRDNSKNTLYLQMNSLRAEDTAMYYCARDEEPENMATRGNLDYWGQGTLVTVSS
chain 2: QSVLTQPPSASGTPGQRVTISCSGRNSNIGSNYVYWYQQLPGAAPKLLIYRDNQRPSGVPDRFSGSKSGTSASLAISGLRTEDEAAYYCASWDDRLSGPYVFGPGTEVTVL
B5: C1296 (protein)
chain 1: QVQLVQSGAEVKKPGASVKVSCKASAYTFTRYYMHWVRQAPGQGLEWMGIINPGGGSRSYAQKFQGRVTMTGDTSTSTVYMELRSLRSEDTAVYYCARGALVPDTAFGGDYWGQGTLVTVSS
chain 2: IRMTQSPSSLSASVGDRVTITCRASQGISNYLAWYQQKPGKVPNLLIYAASTLQSGVPSRFSGSGSGTDFTLTISSLQPEDVATYYCQKYNRAPFTFGPGTKVDIK
B6: C1300 (protein)
chain 1: EVQLVESGGGLVQPGRSLRLSCAASGFTFEDYGMHWVRQAPGKGLEWVSGISWNGGIIGYADSVKGRFTISRDNDKNSLYVQMIRLRAEDTALYYCAKSIRQWQVRGAEYYFDSWGQGTLVTVSS
chain 2: QSALTQPASVSGSPGQSITISCTGTSSDVGAYNYVSWYQHHPGKAPKLMIYEVSNRPSGVSNRFSGSKSGNTASLTISGLQAEDESDYYCTSYTSSSTVLFGGGTKLTVL
B7: C1294 (protein)
chain 1: QVQLQESGPGLVKPSETLSLTCTVSGGSITNYYWSWIRQPPGKGLEWIGYISYSGSIKYNPSLKSRVTISVDTSKIQFSLKLRSVTAADTAVYYCARARTYYYDSSGYPATSFDHWGQGTLVTVSS
chain 2: QTVVTQEPSLTVSPGGTVTLTCASSTGAVTSGYCPNWFQQKPGQAPRALIYSTSNKHSWTPARFSGSLLGGKAALTLSGVQPEDEAEYYCLLYYGGTWVFGGGTKLTVL
B8: C1298 (protein)
chain 1: EVQLVESGGGLVQPGGSLRLSCAASGFTFSIYDMHWVRQATGKGLEWVSTIGTASDAYYPDSVKGRFTISRENAKNSLYLQMNSLRAGDTAVYYCARGGRGYKYGNWYFDLWGRGTLVTVSS
chain 2: DIQLTQSPSSLSASVGDRVTITCRASQSISSFLNWYQQKPGKAPKLLIYAASSLQSGVPSRFSGSGSGTDFTLTISSLQPEDFATYFCQQCYTTSSFGQGTKVEIK

The binders below were run against SARS-CoV-2 Wuhan-Hu-1 spike pseudovirus (assay: pseudovirus neutralization IC50; higher = weaker neutralization).
Protocol: (§1)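 Single-round luciferase reporter pseudovirus mixed with antibody dilutions and put on 293T-ACE2 cells for 48 h; signal relative to no-antibody wells, four-parameter fit.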
With B1 the “pseudovirus neutralization IC50” value was 42 ng/mL.
For B2, the “pseudovirus neutralization IC50” value was over 1000 ng/mL.
With B3 the “pseudovirus neutralization IC50” value was over 1000 ng/mL.
With B4 the “pseudovirus neutralization IC50” value was 115 ng/mL.
For B5, the “pseudovirus neutralization IC50” value was over 1000 ng/mL.
In the case of B6, the “pseudovirus neutralization IC50” value is reported as 25.4 ng/mL.
B7 was tested, and the “pseudovirus neutralization IC50” value was over 1000 ng/mL.
In the case of B8, the “pseudovirus neutralization IC50” value is reported as over 1000 ng/mL.

Each binder was assayed against SARS-CoV-2 Wuhan-Hu-1 spike pseudovirus (assay: pseudovirus neutralization IC90; higher = weaker neutralization).
Protocol: as §1
For B1, the “pseudovirus neutralization IC90” value was 215 ng/mL.
In the case of B2, the “pseudovirus neutralization IC90” value is reported as over 1000 ng/mL.
For B3, the “pseudovirus neutralization IC90” value was over 1000 ng/mL.
In the case of B4, the “pseudovirus neutralization IC90” value is reported as 857 ng/mL.
In the case of B5, the “pseudovirus neutralization IC90” value is reported as over 1000 ng/mL.
With B6 the “pseudovirus neutralization IC90” value was 613 ng/mL.
In the case of B7, the “pseudovirus neutralization IC90” value is reported as over 1000 ng/mL.
B8 was tested, and the “pseudovirus neutralization IC90” value was over 1000 ng/mL.

The binders below were run against SARS-CoV-2 Wuhan-Hu-1 spike receptor-binding domain (assay: ELISA binding EC50; higher = weaker binding; ELISA of recombinant human antibody on coated antigen, from 10 µg/ml in fourfold dilutions; four-parameter fit.).
In the case of B1, the “ELISA binding EC50” value is reported as 2.15 ng/mL.
With B2 the “ELISA binding EC50” value was 79.8 ng/mL.
B3 was tested, and the “ELISA binding EC50” value was 2.41 ng/mL.
B4 was tested, and the “ELISA binding EC50” value was 1.38 ng/mL.
For B5, the “ELISA binding EC50” value was 2.81 ng/mL.
B6 was tested, and the “ELISA binding EC50” value was 1.57 ng/mL.
In the case of B7, the “ELISA binding EC50” value is reported as 19.2 ng/mL.
B8 was tested, and the “ELISA binding EC50” value was 1.71 ng/mL.

Recombinant human monoclonal antibodies (heavy:light variable regions). ELISA EC50 on the named antigen, from 10 µg/ml down; IC50 / IC90 against spike pseudovirus on 293T-ACE2 cells, 48 h; lower = stronger. Calls: IC50 above 1,000 ng/ml = non-neutralizing; EC50 above 2,000 ng/ml = non-binder. The source prints 1000 for neutralization that was not reached; it is given as >1000 ng/ml. A few antibodies were first reported in earlier work of the same group.
